The list shows a part of the results.
B1: chr10:62544570:62544571:+_ENSG00000170312_ENST00000395284|hu_hu|FALSE|FALSE (ssRNA)
RNA: GGGAGUUCUACAGUCCGACGAUCACUGACUAUAUUUGGAUGACGAAGUUCCUUUAAUAGAGAAAUUUCCCGAAUUGCAGUACUAGGAACCCCUUCCUCUUCACUUUCUAGUCUGAUUUUUUUCAUGGCUACCACUUGACCUGUCAACAGAGGAUUGAGCAUCA
B2: chr22:32879901:32879902:+_ENSG00000100225_ENST00000397426|hu_mus|hu_hu_hu_mus_False|1_48 (ssRNA)
RNA: GGGAGUUCUACAGUCCGACGAUCCUCUUCCAUACUCAUGGCAUCCUGAAUUGACUCAGCUUCAACAUUUUGACUAGGCCCUUCCAUACUGUCGUCAGUCCAGGCAUCAAAUGGGGUGGCCUGUCCUUGGGAUGAAUCACUUGGCAACAGAGGAUUGAGCAUCA
B3: chr2:176857102:176857103:-_ENSG00000144320_ENST00000272748|hu_hu|motif|central (ssRNA)
RNA: GGGAGUUCUACAGUCCGACGAUCGGAAUACAGAAUUAAUCUUCCAACCCAUAAUUUUUGUAAUCUCUGAUUUUUUUCCCGGAAUUCUUCCAAUGCUUGAAUUUCCUUAUCUAUACUUUCUAGAACUUCUACAGUUGAAGGUUUCAACAGAGGAUUGAGCAUCA
B4: 109688593_109688713_2749_CDS_ENSG00000148143_ENST00000277225|human|control|control (ssRNA)
RNA: GGGAGUUCUACAGUCCGACGAUCUCCAGAGUCACCAAAGUCUGUGUUUUCACUAUUGUGCUCAGUCCCAUAGAUGGGAGUUUGGGUAUUCAGCAGAGCAGUAUUGGAAACUUGGUGAUCUUUCAAGUUUGUUGAGGAGCCAUACAACAGAGGAUUGAGCAUCA
B5: chr19:41288738:41288739:-_ENSMUSG00000025016_ENSMUST00000025989|mus_mus|motif|central (ssRNA)
RNA: GGGAGUUCUACAGUCCGACGAUCUGGGGGAGGGAGGGGAAGAUAAUCACUUUAGACAUUCAGUUAAAAUGUAAAUUAUCGGAAUCUCCAAAUGUUUAAUAAAAACAAGCAUCUUCUCCAUUUAACACUUCGCUUGCUAACUGUCAACAGAGGAUUGAGCAUCA
B6: chr7:99593754:99593755:+_ENSMUSG00000052572_ENSMUST00000098308|mus_hu|motif|central (ssRNA)
RNA: GGGAGUUCUACAGUCCGACGAUCCUUUAGUGCCUUCUUUCAGUUUAUAAAUGGCAAAAUAGGCAAUCAACAAUCAUAAAGCGGAUCCCAGGUGGAAUCCCCUCCUGUCAGUGAGGUUAGUCCUCCAUACACUUGCAAAUUUUACAACAGAGGAUUGAGCAUCA
B7: chr10:70182154:70182155:-_ENSG00000138346_ENST00000358410|hu_mus|FALSE|FALSE (ssRNA)
RNA: GGGAGUUCUACAGUCCGACGAUCCAGGGCUAGCACUGCGUUGGCCACUCGGUCUGACCCACACUCCAGUUUCCCUGCGUAUGUGAGCUUGUUGCUCAGGGACAUAAUCUUCCUGUUCAUUCGGUAUUGCACGGUCAGCUGCACCAACAGAGGAUUGAGCAUCA
B8: chr17:1756424:1756425:+_ENSG00000132383_ENST00000254719|hu_hu|motif|central (ssRNA)
RNA: GGGAGUUCUACAGUCCGACGAUCAUAGGGCACUGGAUUGCCAAUCUUCACUCCAACUGCUUCAGCUGACUUCAAAACUUCGGAUUCCAUCAAGAUAACUACUCUCCUUCCGUCUUUCAGAGUGUUCACAAUAAAUCUGUGAAUCAACAGAGGAUUGAGCAUCA
B9: chrX:131339419:131339420:-_ENSMUSG00000033436_ENSMUST00000035559|mus_mus|FALSE|FALSE (ssRNA)
RNA: GGGAGUUCUACAGUCCGACGAUCGUUUGAAAGUAUUUUCAGAAUCUCAACCUUGAUUUUUCCACCCCCCUGAGAUAACAAGCGGAAAAAGUUGGCAAUGGAAUUGACAAGCAGGUGCUGGUAGUCAUUAGUAAUAGUCAUGUUCAACAGAGGAUUGAGCAUCA
B10: chr1:6251023:6251024:+_ENSMUSG00000025907_ENSMUST00000027040|mus_mus|motif|central (ssRNA)
RNA: GGGAGUUCUACAGUCCGACGAUCUUCCGCAACUAAGCUUGAAGAAUCUUCUCUGGCUGACUCAAAGGCAGGAGUUUUGGCGGUUUGAUUCUCAAGAUGUUUAACUUUUUCUAAUAACUCUUUCUCAACAAGUUCUCUCUCCACCAACAGAGGAUUGAGCAUCA
B11: chr3:176740097:176740098:-_ENSG00000177565_ENST00000430069|hu_mus|hu_hu_hu_mus_True|38_38 (ssRNA)
RNA: GGGAGUUCUACAGUCCGACGAUCUGUUUUGUAUACCACAAAAGGAGGCACUUUCAGUAUCUGCAAAAGGUGUUUAGUCCUAAAACAUACUCACCUAGAGAAUAAUUCAGGAAAACAAUCUGUUACACUCUAAGACCUACUCCACAACAGAGGAUUGAGCAUCA
B12: chr1:224585847:224585848:-_ENSG00000162923_ENST00000295024|hu_mus|FALSE|FALSE (ssRNA)
RNA: GGGAGUUCUACAGUCCGACGAUCUCCAAAACACGAGUGGAUUGUAUAAAACCCUUGGGUAACACCUUGAUAUUUCCUUACUAAAACUCUGUCUUGCAAGUCCCAUAAAUGAACUCCCUGAGUUGCUACAUUUAACAAAGCUAACAACAGAGGAUUGAGCAUCA
B13: 123812538_123813364_1272_CDS_ENSG00000139697_ENST00000420886|human|control|control (ssRNA)
RNA: GGGAGUUCUACAGUCCGACGAUCUAAGUUUUUGGCUUUAUGACACUCAUCAAACACUAUCACUCCAUCGAAGUCAUCACCGCACCAAUGCAGAAGUUGUUUUAACCUAGUUUUAUACUUGCCGCCAGACUGGCUUUCACCAAUCAACAGAGGAUUGAGCAUCA
B14: chr10:121347744:121347745:-_ENSG00000151923_ENST00000436547|hu_mus|motif|central (ssRNA)
RNA: GGGAGUUCUACAGUCCGACGAUCCGAUCUGACUGAAUAACUGAAGAAUAAGGACUUCUGUCACAUCUCUGGAGAGGUUACCGGCGUAUAGAGUCCGGGGCUGUCCGUCGUCUUCCAUCAUGGUGGGUGCGACGGAGUGAUCCCCAACAGAGGAUUGAGCAUCA
B15: chr4:88365945:88365946:-_ENSMUSG00000070923_ENSMUST00000094993|mus_hu|FALSE|FALSE (ssRNA)
RNA: GGGAGUUCUACAGUCCGACGAUCAAUGCAUUUGUUAGCCACUUGAUAAACAUACUAAAAGCCAUACAAGACGAAUAACAUCAGUUACCUUUAUAUCUAAUAACUGUACCAAUCACUGUAAGAAGAUACAACUGAAGGGGAAGUCAACAGAGGAUUGAGCAUCA
B16: chr14:76907486:76907487:+_ENSMUSG00000022010_ENSMUST00000022587|mus_mus|FALSE|FALSE (ssRNA)
RNA: GGGAGUUCUACAGUCCGACGAUCACAAGUAGAACAGGUAAAUACAGUGGGGACUGUGUGGGGGACAUGCGCAGAACGACUAUACAGGUGAGGUGCAGAAACCCCUACUGGGAAAUCCACUUCCUUAGCAACUGACCACUUCUCCAACAGAGGAUUGAGCAUCA
B17: chr3:150289932:150289933:+_ENSG00000144895_ENST00000460851|hu_hu|hu_hu_hu_mus_False|18_78 (ssRNA)
RNA: GGGAGUUCUACAGUCCGACGAUCCUUGUAGUUUUUAACAUCCCAUACUUCCAUUUGUCCCCUCAGAUUUCCAAAUCCAGCCAGCACUAAUAUAUGUCCAUGAGGGCUAUAGAAGGCUGCAUUACGAGGACCAGUCCCAAAGUCCAACAGAGGAUUGAGCAUCA
B18: 81714202_81746465_819_CDS_ENSG00000153956_ENST00000356860|human|control|control (ssRNA)
RNA: GGGAGUUCUACAGUCCGACGAUCUAACACAAUUGUUGAGCCCUCAUAGAUGUCAGUAGGAAUAUGGACUGCUGCGUGCUGAUAAGAUAUUUGUCGUCCAAAAUUAGCAUCUUCAAUGAAAACAGGUUUUAUCCUCUGGCUGCCCAACAGAGGAUUGAGCAUCA
B19: chr4:144460044:144460045:+_ENSG00000153147_ENST00000283131|hu_mus|hu_hu_hu_mus_False|48_68 (ssRNA)
RNA: GGGAGUUCUACAGUCCGACGAUCACGGUCCAUAGCCUGAAGAUCAACUUGCGGAUUCCAAUCUGAGUCAUACAAAAUGACUACAUCAGCAGUCGCAAGAUUGAUGCCCAGACCACCAGCACGUGUGCUUAGCAUAAAUACAAACAACAGAGGAUUGAGCAUCA
B20: chr3:98518469:98518470:-_ENSG00000057019_ENST00000326840|hu_hu|FALSE|FALSE (ssRNA)
RNA: GGGAGUUCUACAGUCCGACGAUCUGGGGGAGGUUGGUUCCCCGUAGCCUUGAAAGUGGAUGUGGAGGGCUGACCAACUGAAGUUGUGGGGUGCCCUGACAUGUCCAUGAUGAUUGGGGUUGCAUACUCAGGCCCCGUAAUUGGCAACAGAGGAUUGAGCAUCA
B21: chr17:63010574:63010575:-_ENSG00000120063_ENST00000439174|hu_hu|motif|central (ssRNA)
RNA: GGGAGUUCUACAGUCCGACGAUCGAAACAUUCCACCAGGAAUUUUUGGACGUCUCUUAAGCAGUGGGGAUCCCCUUCAAAUUCGGGGAAAUAGUCUUUGAUGCUCACAAUUUGCACCUUCUCCUCAAGCAAGUCUGUCUUGUUCAACAGAGGAUUGAGCAUCA
B22: 60849485_60849605_2359_CDS_ENSMUSG00000021559_ENSMUST00000077453|mouse|control|control (ssRNA)
RNA: GGGAGUUCUACAGUCCGACGAUCGAAACUCCUUAACAGCCCACACUUGAGAGAUUCCACCAGGGUGGAUUUCCCUGAUCCCGAAUGGCCAAACAGUUUGAGCUUGAUUCUGGGCUGGAGAUUCUGGGUGGGUCGGAGUUGCUGCAACAGAGGAUUGAGCAUCA

Each binder was assayed against T1, UNK ZnF1-3 (human, UniProt Q9C0B0 31-174) (assay: nsRBNS (natural sequence RNA bind-n-seq); RBNS binding buffer (assumed for nsRBNS): 25 mM Tris pH 7.5, 150 mM KCl, 3 mM MgCl2, 0.01% Triton X-100, 500 ug/ml BSA, 20 U/ml SUPERase-In, 4 C; UNK is unkempt and MSI1 is Musashi-1; names of the RNAs are library labels; protein concentration not given here; high values mean tight binding).
T1 sequence: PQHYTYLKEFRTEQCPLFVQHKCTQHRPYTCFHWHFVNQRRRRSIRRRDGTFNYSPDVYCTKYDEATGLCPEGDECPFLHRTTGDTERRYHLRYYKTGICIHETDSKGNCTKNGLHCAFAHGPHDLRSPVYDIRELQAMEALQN

Binder | binding signal [enrichment R]
B1 | 0.425
B2 | 0.748
B3 | 0.584
B4 | 1.02
B5 | 1.1
B6 | 0.898
B7 | 0.478
B8 | 0.805
B9 | 1.41
B10 | 1.21
B11 | 0.791
B12 | 1.13
B13 | 0.798
B14 | 0.559
B15 | 1.18
B16 | 1.12
B17 | 1.39
B18 | 1.4
B19 | 0.633
B20 | 0.523
B21 | 0.659
B22 | 1.18

Reference: publication PMC12136788
